Reference: PMC10165274 (The Journal of Biological Chemistry, 2023)

Tests used:
[1] = molecular target: the molecule itself; assay: native gel or EMSA; PCNA variants incubated 24 h at 4 °C, 4 to 20% native PAGE, Coomassie
[2] = molecular target: T1, His-tagged full-length FEN1 (Flap endonuclease 1) (human, UniProt P39748); assay: pull-down; His-tagged full-length FEN1 from E. coli lysate coupled to cobalt resin and washed; incubated 1 h with 5 μM PCNA at 4 °C; washed, eluted with imidazole; SDS-PAGE, Coomassie, densitometry; details: both partners purified
T1 construct: Flap endonuclease 1 (FEN1), human, full length; also called hFEN1-6xHis; source: E. coli Rosetta (pET28b/hFEN1-6xHis), lysate coupled to cobalt resin and washed
T1 sequence (P39748 whole entry): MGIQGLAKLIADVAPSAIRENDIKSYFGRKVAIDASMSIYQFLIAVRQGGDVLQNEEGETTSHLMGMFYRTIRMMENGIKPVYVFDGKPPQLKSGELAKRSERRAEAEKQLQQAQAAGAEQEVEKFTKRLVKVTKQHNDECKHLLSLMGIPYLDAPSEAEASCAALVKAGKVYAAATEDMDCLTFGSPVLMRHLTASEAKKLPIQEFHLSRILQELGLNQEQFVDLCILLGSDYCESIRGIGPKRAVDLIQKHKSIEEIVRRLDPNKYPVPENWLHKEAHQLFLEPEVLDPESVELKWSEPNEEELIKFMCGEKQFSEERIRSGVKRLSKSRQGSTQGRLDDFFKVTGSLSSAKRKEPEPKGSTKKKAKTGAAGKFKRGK

Row | Binder | stoichiometry N [1] | binding result [2]
1 | PCNA-S228I (natural protein, Proliferating cell nuclear antigen (PCNA), human, disease-associated natural allele S228I; also called p.Ser228Ile; PARD variant; source: E. coli BLR-DE3 (pET3c), purified (S and Q HiTrap, Sephacryl-200 gel filtration)) not shown | 3 | –
2 | PCNA-C148S (natural protein, Proliferating cell nuclear antigen (PCNA), human, disease-associated natural allele C148S; made by site-directed mutagenesis of untagged PCNA-WT in pET3c; Untagged; Natural patient allele (homozygous in three PARD patients); also called C148S-PCNA; p.Cys148Ser; source: E. coli BLR-DE3 (pET3c), purified (S and Q HiTrap, Sephacryl-200 gel filtration)) not shown | 3 | binds
